Reference: PubChem BioAssay AID1745845 (National Center for Advancing Translational Sciences (NCATS), 2022)
“And” between values parts separate entries of the source, which are not always exact repeats. Equal entries are not always repeated. Among all 360,000 compounds or so, about 2,600 (0.72%) were called active. The inconclusive results got no clear call from the source; some entries with a clear call stand among them for comparison. Calls come from the whole dose curve; as a rule, active = well fitted inhibition curve with a large enough effect; inconclusive = small, poorly fitted or top-dose-only effect; inactive = no such curve, though single readings can be large or run the other way. Where the call is inconclusive, the potency comes from a doubtful curve fit.
% is set by controls: 0 for no effect and ±100 for the full control effect; potency is the fitted concentration of half-maximal effect; tags give direction and shape of the fitted curve.

Test: Primary qHTS for Inhibitors of ATXN expression; note: nearly all actives have a fitted effect of over 55% in size
Settings: HEK-293 ATXN2-luciferase reporter, luminescence, 24 h; activity change, negative = inhibition: at 57 µM (top of the series)
Outline: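 qHTS (up to 57 uM final) was run with 24 h compound exposure of reporter cells at 37 °C. Each well was multiplexed: SteadyGlo luminescence measured ATXN2-luciferase expression after a fluorogenic Gly-Phe-AFC viability readout (25 uM final).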
With `CCOC(=O)c1c(C)oc2nc(C)nc(NCc3ccc(Cl)cc3)c12` the Potency was “inactive”. For `Clc1ccc(-n2c(SC/C=C/c3ccccc3)nnc2-c2cccnc2)cc1`, the Potency was inconclusive: 39.8 µM [inhibitor, single point]. For `CCc1ccc(S(=O)(=O)N2CCN(C(=O)c3cccnc3)CC2)cc1`, the activity change, negative = inhibition was inconclusive: -44% [inhibitor]. In the case of `COc1ccc(C(C(=O)NC2CCCCC2)N(C(=O)CCl)c2cccc(Cl)c2)cc1` (centres undefined), the Potency is reported as active: 6.31 µM. For `COc1cc(C2CC(=O)c3c([nH]c(C(=O)OCCOC(C)C)c3C)C2)cc(OC)c1OC` (centres undefined), the Potency was active: 31.6 µM. In the case of `O=C(Nc1ccc(-c2csc(Nc3cccc(C(F)(F)F)c3)n2)cc1)c1ccccc1`, the Potency is reported as inconclusive: 39.8 µM [inhibitor, single point]. For `CCc1c(C)n([O-])c2c([n+]1=O)CCC2`, the Potency was inconclusive: 3.98 µM [inhibitor, single point]. For `O=C(N/N=C/c1ccccn1)c1cc(-c2ccc(Br)cc2)nc2ccccc12`, the Potency was inconclusive: 2.99 µM [inhibitor, full curve, poor fit]. With `O=C1C=CC(O)(c2cc(=O)c3c(O)cc(O)cc3o2)C=C1` the Potency was active: 7.94 µM. With `CNc1ccc(Br)cc(C(=O)/C=C/c2ccc3c(c2)OCO3)c1=O` the Potency was inconclusive: 39.8 µM [inhibitor, single point]. With `CC1(C)CC2C1CCC1(O)CC2(C)CCC1N(O)c1ccc(C(=O)NCCO)cn1` (centres undefined) the Potency was active: 28.2 µM. With `CNC(=O)c1cc(Oc2ccc(NC(=O)Nc3cc(C(C)(C)C)nn3-c3ccc4ncccc4c3)c(F)c2)ccn1` the Potency was active: 1.37 µM. For `Cc1ccc(Cc2c(C)c(C#N)c3[nH]c4ccccc4n3c2=O)cc1`, the Potency was inconclusive: 3.98 µM [inhibitor, partial curve, poor fit]. With `Cc1ccc(S(=O)(=O)/N=C2\C(=O)c3ccccc3C([O-])=C2n2cc[n+](CCC(C)C)c2)cc1` the Potency was inconclusive: 22.4 µM [inhibitor, partial curve, poor fit]. With `COc1ccc(Oc2c(Cl)cnn(-c3ccc(Cl)c(Cl)c3)c2=O)cc1` the Potency was inconclusive: 28.2 µM [inhibitor, single point]. In the case of `O=C(O)c1cc(=O)cc(C(=O)O)[nH]1`, the Potency is reported as “inactive”. With `CCOC(=O)N1CCN(C(=O)CSCC(=O)Nc2nc(-c3ccc(-c4ccccc4)cc3)cs2)CC1` the Potency was inconclusive: 15 µM [inhibitor, partial curve, poor fit]. With `CCc1cc2c(=O)n(Cc3ccco3)c(SCc3c(C)noc3C)nc2s1` the Potency was “inactive”. For `CCn1c(C2CCN(S(=O)(=O)c3ccc(OC)cc3)CC2)n[nH]c1=S`, the Potency was inconclusive: 2.67 µM [inhibitor, full curve, poor fit]. In the case of `COc1ccc(CCNC(=O)Nc2nc(C(N)Cc3ccccc3)cs2)cc1OC` (centres undefined), the Potency is reported as “inactive”. In the case of `O=C(O)c1ccccc1C(=O)NCc1ccc(F)cc1`, the Potency is reported as “inactive”. With `Cc1ccc([C@@H]2CC=C(C(=O)O)[C@H](c3ccc(C(C)(C)C)cc3)N2S(=O)(=O)c2ccc(C)cc2)cc1` the Potency was inconclusive: 39.8 µM [inhibitor, single point]. For `CN(c1cccc(Cl)c1)S(=O)(=O)c1cccc(C(=O)Nc2nc3ccccc3[nH]2)c1`, the Potency was inconclusive: 39.8 µM [inhibitor, single point]. In the case of `CCOC(=O)c1c(NC(=O)c2nc(SC(C)C)ncc2Cl)sc2c1CCCC2`, the Potency is reported as “inactive”. In the case of `CCCCOCC(O)Cn1c(C)nc2ccccc21` (centres undefined), the Potency is reported as “inactive”. For `Cc1ccccc1Cn1c(=O)n(Cc2ccc(Cl)cc2)c(=O)c2cccnc21`, the Potency was “inactive”. For `COc1ccccc1N=Cc1c(C)c(C#N)c2[nH]c3ccccc3n2c1=O`, the Potency was “inactive”. With `COc1ccc(OC)c(NC(=O)CSC2=Nc3ccccc3C3=NC(CC(=O)NCc4ccc5c(c4)OCO5)C(=O)N23)c1` (centres undefined) the Potency was “inactive”. In the case of `COCCn1c(C)cc(C(=O)CSc2nnnn2C2CCCC2)c1C`, the Potency is reported as active: 14.1 µM. For `COc1ccc(N2CCN(C(=O)c3ccc(N(C)S(=O)(=O)c4ccc(OC)cc4)cc3)CC2)cc1`, the Potency was “inactive”. For `C#CCn1c(=NC(=O)c2ccc(S(=O)(=O)N3CCc4ccccc4C3)cc2)sc2cc(S(N)(=O)=O)ccc21`, the Potency was inconclusive: 12.6 µM [inhibitor, partial curve]. For `O=C(Nc1nnc(-c2ccc(Cl)s2)o1)C1CCCCC1`, the Potency was “inactive”. In the case of `O=C(CCN1CCOCC1)c1ccc(Br)cc1`, the Potency is reported as inconclusive: 18.9 µM [inhibitor, single point]. For `COc1ccc(-c2nc3c4ccccc4n(CC(=O)Nc4cc(F)ccc4F)c(=O)n3n2)cc1`, the Potency was “inactive”. In the case of `CNC(=O)c1cc(Oc2ccc(NC(=O)Nc3ccc(Cl)c(C(F)(F)F)c3)c(F)c2)ccn1`, the Potency is reported as active: 19.3 µM. With `COc1ccc(Cn2c(SCc3ccc(C(=O)NC4CCCC4)cc3)nc3ccncc32)cc1` the Potency was inconclusive: 39.8 µM [inhibitor, single point]. In the case of `O=C(C[C@H]1C[C@H](C(=O)N2CCCCC2)[C@@]2(CCc3ccccc3)c3[nH]c4ccc(Cl)cc4c3CCN2C1=O)NCCCn1ccnc1`, the Potency is reported as inconclusive: 39.8 µM [inhibitor, single point]. In the case of `COc1ccc2c(c1)CC/C(=C/c1cc(OC)c(OC)c(OC)c1)C2=O`, the Potency is reported as inconclusive: 25.1 µM [inhibitor, single point]. In the case of `CC1CC2(C)C(=CC1=O)CCC1C2C(O)CC2(C)C1CCC2(O)C(=O)CO` (centres undefined), the Potency is reported as “inactive”. With `CN1CCN(Cc2ccc(Sc3ccc(Cl)cc3)c([N+](=O)[O-])c2)CC1` the Potency was “inactive”. In the case of `Cc1ccc(CSc2nnc(SCC(=O)N/N=C/c3ccc(C(=O)O)cc3)s2)cc1`, the Potency is reported as inconclusive: 39.8 µM [inhibitor, single point]. With `O=C(CCn1c(=O)oc2ccccc21)Nc1ccc2c(c1)OCCO2` the Potency was “inactive”. In the case of `COc1ccc(S(=O)(=O)Nc2ccc(C)cc2)cc1N(C)S(=O)(=O)c1ccc(Cl)cc1`, the Potency is reported as inconclusive: 39.8 µM [inhibitor, single point]. In the case of `CC1(Cc2cccc(C(F)(F)F)c2)C(=O)Nc2c(Cl)ccc(Cl)c21` (centres undefined), the Potency is reported as inconclusive: 39.8 µM [inhibitor, single point]. With `CC(=O)N1CCN(c2csc3ccc(F)cc3c2=O)CC1` the Potency was “inactive”. With `Cc1ccccc1NC(=O)CSc1nc(-c2ccccc2C)nc2cc(=O)[nH]n12` the Potency was inconclusive: 35.5 µM [inhibitor, single point]. For `COc1ccccc1N(CC(=O)NCCSCc1ccccc1)S(=O)(=O)c1ccc(C)cc1`, the Potency was inconclusive: 31.6 µM [inhibitor, single point] and inconclusive: 17.8 µM [inhibitor, partial curve, poor fit]. For `COc1ccccc1-c1ccc2c(c1)C(C)(Cc1cc(Cl)ccc1C(F)(F)F)C(=O)N2` (centres undefined), the Potency was inconclusive: 39.8 µM [inhibitor, single point]. In the case of `COc1ccc(/C=C/C(=O)Nc2ccccc2C(F)(F)F)cc1OC`, the Potency is reported as “inactive”. For `CCCN1CCN(CCNC(=O)Nc2ccc(OC)cc2OC)CC1`, the Potency was “inactive”. For `Cc1cc(C)cc(N2C(=O)C=CC2=O)c1`, the Potency was inconclusive: 28.2 µM [inhibitor, single point]. In the case of `CCOC(=O)CNC(=O)C1CCCN(c2ncccn2)C1` (centres undefined), the Potency is reported as inconclusive: 4.47 µM [inhibitor, partial curve, poor fit]. For `COc1ccc(CNC(=O)Nc2nc(C(N)Cc3ccc(F)cc3)cs2)cc1` (centres undefined), the Potency was inconclusive: 39.8 µM [inhibitor, single point]. In the case of `N#C/C(=C(/O)COC(=O)CSc1ccc(Cl)cc1)c1nc2ccccc2[nH]1`, the Potency is reported as active: 28.2 µM. For `CC1=NN(c2ccccc2)C(=O)/C1=C\c1sccc1C`, the Potency was “inactive”. In the case of `N#Cc1ccccc1/C=N/Nc1nc(-c2ccccc2)c2cc(Br)ccc2n1`, the Potency is reported as inconclusive: 35.5 µM [inhibitor, single point]. With `O=c1cc(N2CCN(c3ccccc3)CC2)[nH]c(=O)n1C1CCCCC1` the Potency was active: 5.01 µM. In the case of `COC(=O)[C@H](CCCN=C(N)N)NS(=O)(=O)c1ccc(C)cc1`, the Potency is reported as “inactive”. With `COc1ccccc1CCNC(=O)c1c(N)[nH]c(C(=O)c2ccccc2)c1-c1ccc(Br)cc1` the Potency was inconclusive: 35.5 µM [inhibitor, single point]. In the case of `Cc1cc(C(=O)NC2CCCN(Cc3ccc(Cl)cc3)C2)n(C)n1` (centres undefined), the Potency is reported as inconclusive: 10 µM [inhibitor, partial curve, poor fit]. For `Cc1n[nH]c(=S)n1-c1ccccc1`, the Potency was “inactive”. In the case of `O=C(Nc1ccc(NC(=O)C2CCCCC2)cn1)c1ccco1`, the Potency is reported as inconclusive: 39.8 µM [inhibitor, single point]. With `COc1ccccc1CNC(=O)c1oc2ccc(S(=O)(=O)N3CCCCC3)cc2c1C` the Potency was inconclusive: 35.5 µM [inhibitor, partial curve, poor fit]. In the case of `NC(=S)N=Nc1c(O)n(CCCl)c2ccccc12`, the Potency is reported as “inactive”. For `Cc1nc2nc(-c3ccco3)[nH]n2c(=O)c1C`, the Potency was “inactive”. For `CCOC(=O)c1sc2nc(CSc3ccccc3)nc(N3CCC(C(N)=O)CC3)c2c1C`, the Potency was inconclusive: 29.9 µM [inhibitor, single point]. With `COC(=O)c1[nH]c2ccc(Br)cc2c1NC(=O)C(C)N1CCN(C2CCCCC2)CC1` (centres undefined) the Potency was inconclusive: 39.8 µM [inhibitor, single point]. For `Cc1oc2ncnc(N3CCCCC3)c2c1C(=O)N1CCN(c2cccc(C(F)(F)F)c2)CC1`, the Potency was inconclusive: 25.1 µM [inhibitor, single point]. In the case of `Cc1nn(Cc2ccc(F)cc2)c2sc(C(=O)Nc3ccc(N4CCOCC4)cc3N3CCOCC3)cc12`, the Potency is reported as inconclusive: 15.8 µM [inhibitor, partial curve, poor fit].
